According to the supplement of paper PMC3334620:
In all, about 33,000 sequences were measured (“E-score (-0.5 to 0.5)”: median about -0.056, highest 2% from about 0.38 on). This is one part of the list.

Each sequence was assayed against Stb4 (UniProt P50104) (assay: PBM E-score (8-mer binding enrichment) (E-score (-0.5 to 0.5)); higher = stronger / more preferred TF binding; most listed sequences are background and not binding sites). Conditions: protein concentration: 200 nM; construct: GST-DNA-binding domain.
In short: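 PURExpress in vitro transcription/translation supplied GST-tagged yeast transcription factors, either full-length or DNA-binding domain. Applied at about 100-200 nM to universal all-10-mer Agilent arrays double-stranded by primer extension, the bound protein was detected with fluorescent anti-GST. E-scores, modified Wilcoxon-Mann-Whitney statistics, were given by the Universal PBM Analysis Suite to ungapped eight-base words pooled with their reverse complements after masliner normalisation.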
CATCGAGC was tested, and the “PBM E-score” value was -0.0405.
For CTCCGGTC, the “PBM E-score” value was 0.255.
In the case of GAATGGCC, the “PBM E-score” value is reported as 0.0908.
CCTCCTGA was tested, and the “PBM E-score” value was -0.208.
For ATACAGTA, the “PBM E-score” value was 0.0496.
With CCGGGCAG the “PBM E-score” value was 0.23.
For CAGCCGCG, the “PBM E-score” value was 0.151.
For ACTTGACC, the “PBM E-score” value was -0.131.
For ACCGTGAC, the “PBM E-score” value was -0.0354.
In the case of CGTGGTAC, the “PBM E-score” value is reported as -0.102.
With AAAAATGG the “PBM E-score” value was 0.042.
For TCCATACA, the “PBM E-score” value was -0.143.
TATTTCCA was tested, and the “PBM E-score” value was 0.0479.
In the case of AAGCGTTG, the “PBM E-score” value is reported as -0.263.
In the case of AGGAGAGC, the “PBM E-score” value is reported as -0.227.
In the case of CTATAGCA, the “PBM E-score” value is reported as -0.107.
With CGGAGCCC the “PBM E-score” value was 0.162.
With AGAAGACA the “PBM E-score” value was -0.259.
With AGCGTCCG the “PBM E-score” value was 0.0714.
With AGTGTGAA the “PBM E-score” value was -0.0503.
In the case of GAATGTTA, the “PBM E-score” value is reported as 0.192.
In the case of AAAGAGAC, the “PBM E-score” value is reported as -0.0454.
With ATGCATCG the “PBM E-score” value was 0.18.
In the case of ACGGCGAC, the “PBM E-score” value is reported as -0.0191.
AATTTAGG was tested, and the “PBM E-score” value was 0.0189.
For AAGCATAA, the “PBM E-score” value was 0.0475.
With GATGCTAA the “PBM E-score” value was 0.113.
With ACTCCGGC the “PBM E-score” value was 0.281.
For ATCGTAGC, the “PBM E-score” value was -0.203.
GACAACTA was tested, and the “PBM E-score” value was -0.307.
With AGACATAC the “PBM E-score” value was -0.107.
With AGAGGCAT the “PBM E-score” value was 0.0561.
CCAGCAAC was tested, and the “PBM E-score” value was 0.0695.
With CGGATTTA the “PBM E-score” value was 0.318.
In the case of ATGAGATA, the “PBM E-score” value is reported as -0.0324.
In the case of CCGGTCCG, the “PBM E-score” value is reported as 0.389.
For CCCGTCTC, the “PBM E-score” value was 0.0964.
TCCGAGGA was tested, and the “PBM E-score” value was 0.453.
With GGACTTAC the “PBM E-score” value was 0.0513.
With CTACCCTC the “PBM E-score” value was -0.0598.
For ACCAGCAA, the “PBM E-score” value was 0.0522.
In the case of ACGAGCCT, the “PBM E-score” value is reported as -0.13.
AGCTAGAC was tested, and the “PBM E-score” value was -0.132.
For AGCGTATC, the “PBM E-score” value was -0.153.
CGTAGGCC was tested, and the “PBM E-score” value was -0.117.
For GCCCTCGA, the “PBM E-score” value was -0.216.
In the case of GATTGGCA, the “PBM E-score” value is reported as -0.219.
For TCAATCCA, the “PBM E-score” value was -0.077.
With ATGGGTTG the “PBM E-score” value was -0.00734.
In the case of CTAAGCAG, the “PBM E-score” value is reported as -0.0836.
For GCACCCAA, the “PBM E-score” value was 0.128.
With GTCATGTA the “PBM E-score” value was -0.11.
In the case of GCGATCAA, the “PBM E-score” value is reported as -0.216.
In the case of GACAATTA, the “PBM E-score” value is reported as -0.0527.
ACGAGGCG was tested, and the “PBM E-score” value was -0.0457.
CCGAGGAG was tested, and the “PBM E-score” value was 0.393.
CGGAGTAG was tested, and the “PBM E-score” value was 0.244.
For AGATAGCT, the “PBM E-score” value was -0.0191.
For TGCTCACA, the “PBM E-score” value was -0.292.
For AGTGTTTC, the “PBM E-score” value was -0.113.
In the case of AGTTGAAC, the “PBM E-score” value is reported as -0.13.
AAGAATAC was tested, and the “PBM E-score” value was -0.0146.
ATACTCGG was tested, and the “PBM E-score” value was 0.374.
GCAGGCGC was tested, and the “PBM E-score” value was -0.0991.
For GCGCACGC, the “PBM E-score” value was -0.0384.
In the case of ATTCGAAC, the “PBM E-score” value is reported as -0.0175.
GTCGGGGA was tested, and the “PBM E-score” value was 0.225.
In the case of GACTCTGA, the “PBM E-score” value is reported as -0.0541.
In the case of TGGATGAA, the “PBM E-score” value is reported as -0.185.
With CGCCCCCG the “PBM E-score” value was 0.181.
ACTTACGC was tested, and the “PBM E-score” value was 0.0071.
With AAGGCCCC the “PBM E-score” value was 0.00627.
With ACTGTGTC the “PBM E-score” value was -0.148.
For ACGAACAA, the “PBM E-score” value was 0.079.
AATTAGGG was tested, and the “PBM E-score” value was -0.0259.
With CGGGGACG the “PBM E-score” value was 0.159.
With AGTGTAAC the “PBM E-score” value was -0.154.
With GAAGAATA the “PBM E-score” value was -0.0763.
In the case of GCCACACA, the “PBM E-score” value is reported as 0.0524.
CACGCACA was tested, and the “PBM E-score” value was -0.0835.
With AGGGAGCC the “PBM E-score” value was -0.0256.
With ACAATCAC the “PBM E-score” value was -0.233.
For CAATGGTA, the “PBM E-score” value was -0.00861.
CTGGCTAA was tested, and the “PBM E-score” value was -0.189.
With AGATATCC the “PBM E-score” value was 0.184.
AAATGATT was tested, and the “PBM E-score” value was 0.138.
With ATGTCAGA the “PBM E-score” value was -0.0886.
For ACGATCGC, the “PBM E-score” value was -0.111.
In the case of AGCGAACA, the “PBM E-score” value is reported as -0.0423.
With CTACTGGA the “PBM E-score” value was -0.118.
For TCCGTGAA, the “PBM E-score” value was 0.232.
For CACTTGAG, the “PBM E-score” value was -0.265.
In the case of GTAAAGGA, the “PBM E-score” value is reported as -0.0182.
For ACCCCCTA, the “PBM E-score” value was -0.362.
In the case of AGGGACAA, the “PBM E-score” value is reported as -0.0927.
For ACCAACCG, the “PBM E-score” value was 0.164.
In the case of GCGAGGCC, the “PBM E-score” value is reported as -0.243.
In the case of GACCAGAA, the “PBM E-score” value is reported as -0.19.
In the case of GGGCCTTA, the “PBM E-score” value is reported as -0.238.
With GCCGGGCC the “PBM E-score” value was 0.169.
In the case of ACGAATAA, the “PBM E-score” value is reported as 0.0549.
With TCCTTGCA the “PBM E-score” value was 0.0581.
AGCCCCCA was tested, and the “PBM E-score” value was -0.387.
In the case of GTTTCGAA, the “PBM E-score” value is reported as -0.145.
AGGTCTCG was tested, and the “PBM E-score” value was 0.00324.
GCAGAACA was tested, and the “PBM E-score” value was -0.0835.
GTACGAAC was tested, and the “PBM E-score” value was 0.077.
For CACGAACA, the “PBM E-score” value was -0.0987.
In the case of CGCCGGGA, the “PBM E-score” value is reported as 0.343.
GCGCTCCC was tested, and the “PBM E-score” value was 0.00333.
For CATGTATA, the “PBM E-score” value was -0.276.
ATGTTTGA was tested, and the “PBM E-score” value was -0.104.
With TCCTGGCA the “PBM E-score” value was -0.127.
For ATAACGTA, the “PBM E-score” value was 0.0685.
ATGCTGTG was tested, and the “PBM E-score” value was -0.243.
In the case of TAAGAGCA, the “PBM E-score” value is reported as -0.193.
With GCTTAGAC the “PBM E-score” value was -0.18.
ATGAGTGG was tested, and the “PBM E-score” value was -0.209.
With CCAAGGCC the “PBM E-score” value was -0.149.
In the case of GCGAATCA, the “PBM E-score” value is reported as -0.00549.
CCCCTGGA was tested, and the “PBM E-score” value was -0.099.
In the case of CAATAAAG, the “PBM E-score” value is reported as 0.0196.
In the case of ACGCGCAT, the “PBM E-score” value is reported as -0.0614.
In the case of CTTGGTCA, the “PBM E-score” value is reported as -0.102.
GCACGCTA was tested, and the “PBM E-score” value was 0.049.
In the case of GCGGAAGA, the “PBM E-score” value is reported as 0.317.
In the case of CGCTCATC, the “PBM E-score” value is reported as -0.0735.
In the case of CAGATCGC, the “PBM E-score” value is reported as 0.0154.
For ATATCCCC, the “PBM E-score” value was 0.0386.
GGGTCACC was tested, and the “PBM E-score” value was -0.0719.
AGCGGGAG was tested, and the “PBM E-score” value was 0.12.
In the case of AGGGCTAC, the “PBM E-score” value is reported as -0.176.
AGCAGCTC was tested, and the “PBM E-score” value was 0.00561.
With ATGGGTCC the “PBM E-score” value was 0.0523.
CGCGTGTC was tested, and the “PBM E-score” value was 0.104.
In the case of TATGGGCA, the “PBM E-score” value is reported as -0.168.
TGTTTAAA was tested, and the “PBM E-score” value was -0.2.
For GCGGCCCC, the “PBM E-score” value was -0.0368.
In the case of AGGTCAGG, the “PBM E-score” value is reported as -0.172.
For ATCTGGAC, the “PBM E-score” value was 0.0445.
For ATTTTAGC, the “PBM E-score” value was 0.0784.
In the case of GGATTTCA, the “PBM E-score” value is reported as 0.147.
ATTAGGTG was tested, and the “PBM E-score” value was -0.0979.
In the case of ACAGCTAA, the “PBM E-score” value is reported as -0.173.
With ACCTGGTA the “PBM E-score” value was -0.218.
ATCATTAG was tested, and the “PBM E-score” value was -0.192.
For GAACAAGC, the “PBM E-score” value was -0.135.
GAAAAGCC was tested, and the “PBM E-score” value was 0.0816.
In the case of ATCATACA, the “PBM E-score” value is reported as -0.148.
With AGTCACTC the “PBM E-score” value was -0.0339.
With AGTTGATA the “PBM E-score” value was -0.119.
GACTCACA was tested, and the “PBM E-score” value was -0.218.
With CTGAACAG the “PBM E-score” value was -0.0299.
In the case of CTCGATCA, the “PBM E-score” value is reported as -0.155.
ACGCGAAA was tested, and the “PBM E-score” value was -0.199.
GGTATTCA was tested, and the “PBM E-score” value was 0.0901.
With CACCTGTC the “PBM E-score” value was -0.0171.
AGCACTCC was tested, and the “PBM E-score” value was -0.0384.
ACAGGGCA was tested, and the “PBM E-score” value was -0.263.
In the case of GTCTTATA, the “PBM E-score” value is reported as -0.184.
With CAGATAAG the “PBM E-score” value was -0.164.
For GCGCTGCA, the “PBM E-score” value was -0.176.
With GTCCCGCA the “PBM E-score” value was 0.213.
With CTGGAACA the “PBM E-score” value was -0.0971.
CCCGCTGC was tested, and the “PBM E-score” value was 0.0999.
CGCGCTGC was tested, and the “PBM E-score” value was -0.161.
With ACGGTCCC the “PBM E-score” value was 0.0782.
AGCAAACC was tested, and the “PBM E-score” value was 0.0287.
CGGTCACG was tested, and the “PBM E-score” value was 0.0638.
GCCGGCTA was tested, and the “PBM E-score” value was 0.265.
For ATCTAGTC, the “PBM E-score” value was 0.119.
In the case of CGTCCTCC, the “PBM E-score” value is reported as 0.0587.
